# Assay results published in PubChem BioAssay AID686978 (National Center for Advancing Translational Sciences (NCATS), 2013).
# Where “and” joins values, the source holds several entries; their conditions need not be identical. Equal entries are not always repeated. In all, about 420,000 compounds went through this assay and about 64,000 (15%) were called active. The shares of active, inactive and inconclusive entries below differ from those in the screen. The call rests on the fitted dose curve; in most records, active means well fitted inhibition curve with a large enough effect; inconclusive means small, poorly fitted or top-dose-only effect; inactive means flat fitted curve, though single readings scatter. A potency beside an inconclusive call is a rough fit, not a confirmed value.
# Assay: qHTS for Inhibitors of human tyrosyl-DNA phosphodiesterase 1 (TDP1): qHTS in cells in absence of CPT; further: nearly all actives have a fitted effect of over 55% in size
# Settings: DT40 Tdp1-/- hTDP1 cells, no CPT, ATP luminescence, 48 h; activity change, negative = growth inhibition: at 46.2 µM (top of the series) unless noted
# Procedure, shortened: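 Luminescent ATP content (CellTiter-Glo) served as the growth readout. Knockout chicken DT40 cells expressing human TDP1 were exposed to compounds without camptothecin for a minimum 48 hr at 37 °C.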
# On the % scale 0 is the no-effect control and ±100 the full control effect; potency means the concentration at half of the fitted maximal effect; tags describe the fitted curve by direction and shape.
Compound,Potency,"activity change, negative = growth inhibition"
Nc1c(NCCc2ccccc2)c2ccccc2oc1=O,"inconclusive: 23.1 µM [inhibitor, single point]",–
CC(C)C(NS(C)(=O)=O)c1nnc2n1CCN(Cc1ccc3cccnc3c1)CC2 (configuration not stated),–,inactive: -13.5%
CCCCNC(=O)C(=O)Nc1ccc2c(c1)N(S(=O)(=O)c1cccs1)CCC2,active: 1.84 µM,–
O=C(CCc1n[nH]c(=O)[nH]c1=O)N/N=C/c1ccco1,–,inactive: -1.92%
O=C(NCc1cccs1)[C@@H]1CCCN1S(=O)(=O)c1ccccc1F,–,inactive: -24.9%
O=c1c2ccccc2nc(/C=C/c2cc(Br)ccc2O)n1CCCO,active: 16.4 µM,–
Cn1c(=O)c2c(SCC(=O)NCc3ccco3)nc(-c3ccccc3F)nc2n(C)c1=O,–,inactive: -12.9%
OC[C@@H]1CN(Cc2ccc(Cl)cc2)C[C@H](n2cnc3c(Nc4ccccc4)ncnc32)O1,"inconclusive: 20.6 µM [inhibitor, single point]",–
Cc1cc(Br)c(Cl)cc1NC(=O)CN1C(=O)C2C3CC(c4ccccc4)C(C3)C2C1=O (configuration not stated),"inconclusive: 29.1 µM [inhibitor, single point]",–
Cc1ccc(-c2[nH]nc3c2C(c2ccccc2OC(=O)N2CCOCC2)C(C#N)=C(N)O3)cc1 (configuration not stated),–,inactive: 2.01%
O=C(NC1CCCC1)c1ccc(Cl)c(S(=O)(=O)N2CCCCC2)c1,–,inconclusive: -30.4% [inhibitor]
O=C(CN1CCOCC1)N/N=C/c1ccc(C(=O)O)cc1,–,inactive: 19.3%
COCCn1c(SCCCc2ccccc2)nc2c1c(=O)[nH]c(=O)n2C,"inconclusive: 29.1 µM [inhibitor, single point]",–
COc1ccc(NC(=O)CC2C(=O)N(c3ccccc3)C(=O)N2Cc2cccnc2)cc1 (configuration not stated),–,inactive: -21.1%
COc1cc(OC)nc(C(NC(=O)C2CCN(Cc3ccc(Oc4ccccc4)cc3)CC2)c2ccc(F)cc2)n1 (configuration not stated),"inconclusive: 25.9 µM [inhibitor, single point]",–
O=C(CNC(=O)c1ccc(N2C(=O)c3ccccc3C2=O)cc1)OCC(=O)c1ccc(Cl)cc1,–,inactive: 7.93%
CC1CCC(CC(=O)O)(C(=O)O)CC1 (configuration not stated),–,inactive: -12.3%
O=C(Nc1ccc2c(c1)CCC2)c1cccc(OC(F)F)c1,"inconclusive: 29.1 µM [inhibitor, single point]",–
CN(CCc1ccccn1)C(=S)NC(=O)c1ccco1,"inconclusive: 29.1 µM [inhibitor, single point]",–
CCOc1ccccc1NC(=O)COc1cccc2c(=O)n(CCOC)ccc12,active: 13 µM,–
Oc1ccc(N=Nc2ccccc2)o1,active: 13 µM,–
O=C(Nc1ccccc1)c1nn(-c2cccc(C(F)(F)F)c2)ccc1=O,"inconclusive: 16.4 µM [inhibitor, partial curve]",–
Cc1cc(Nc2nnnn2-c2ccccc2)n(-c2ccc(Cl)cc2)n1,"inconclusive: 18.4 µM [inhibitor, single point]",–
COc1cccc(OCC(O)CN2CCN(C)CC2)c1 (configuration not stated),–,inactive: -5.09%

Compound,Potency,"activity change, negative = growth inhibition"
O=C(NCc1ccc(F)cc1)C1CC(=O)N(Cc2ccco2)C1 (configuration not stated),–,inactive: 15.7%
COc1ccc(N(C)S(=O)(=O)c2cccc(C(=O)OCC(=O)N3CC(C)CC(C)C3)c2)cc1 (configuration not stated),active: 20.6 µM,–
CCC1CCCCN1S(=O)(=O)c1ccc(N2CCCCS2(=O)=O)cc1 (configuration not stated),"inconclusive: 23.1 µM [inhibitor, partial curve]",–
COc1ccc(OC)c2sc(NNC(=O)C3COc4ccccc4O3)nc12 (configuration not stated),"inconclusive: 29.1 µM [inhibitor, single point]",–
CC(=O)Nc1c(C(=O)Nc2cccc(C)c2)nnn1-c1ccc(C)cc1,"inconclusive: 23.1 µM [inhibitor, single point]",–
CCOC(=O)c1ccc(NC(=O)c2c(C)oc3nc(C)nc(N4CCCC4)c23)cc1,"inconclusive: 18.4 µM [inhibitor, single point]",–
COc1cc(/C=N/NC(=O)c2sc(N)c(C#N)c2C)cc(Br)c1O,"inconclusive: 16.4 µM [inhibitor, partial curve, poor fit]",–
O=C(CCCc1nc(-c2ccco2)no1)Nc1ccccc1[N+](=O)[O-],–,inactive: -21.2%
Cn1ncc2c(=S)[nH]c(=S)[nH]c21,"inconclusive: 29.1 µM [inhibitor, single point]",–
COc1cccc(-n2c(=O)c3c4c(sc3n(Cc3ccc(F)cc3Cl)c2=O)CCCC4)c1,"inconclusive: 20.6 µM [inhibitor, single point]",–
CCN(CC)S(=O)(=O)c1ccc(O)c(NC(=O)CN2CCc3ccccc3C2)c1,"inconclusive: 23.1 µM [inhibitor, single point]",–
COc1ccc(-c2oc3ccc(-c4cc(OC)c(OC)c(OC)c4)cc3c2-c2ccc(OC)cc2)cc1,"inconclusive: 13 µM [inhibitor, partial curve]",–
COc1ccccc1-c1nc(C#N)c(N2CCN(c3ccccc3)CC2)o1,"inconclusive: 25.9 µM [inhibitor, single point]",–
Cc1cc(N2CCN(C)CC2)nc2ccc(NC(=O)Nc3ccccc3)cc12,"inconclusive: 20.6 µM [inhibitor, single point]",–
O=C(NCc1ccco1)C(c1cccs1)N(C(=O)Cc1cccs1)c1ccccc1 (configuration not stated),"inconclusive: 29.1 µM [inhibitor, single point]",–
O=C1C2CCCN2C(=S)N1C1CCCCC1 (configuration not stated),"inconclusive: 29.1 µM [inhibitor, single point]",–
CCCN=Cc1ccc(O)cc1,–,inactive: 2.01%
O=C1NC[C@H](Cc2ccc(O)cc2)N(C[C@@H]2CCCN2C[C@H](Cc2ccccc2)N2C[C@H](Cc3ccccc3)N(CC3CCCCCC3)C(=O)C2=O)C1=O,"inconclusive: 16.4 µM [inhibitor, single point]",–
O=C(CSc1nc(-c2ccccc2)nc2c1CCCC2)N1CCOCC1,"inconclusive: 18.4 µM [inhibitor, single point]",–
COc1ccc(Oc2cnn(-c3ccccc3)c(=O)c2Br)cc1,"inconclusive: 29.1 µM [inhibitor, single point]",–
CN(O)/C=C/C(=O)c1ccc(Br)cc1,"inconclusive: 16.4 µM [inhibitor, partial curve]",–
OC(CNCc1ccccc1F)(c1ccc(F)cc1)c1ccc(F)cc1,"inconclusive: 0.58 µM [inhibitor, full curve, poor fit]",–
CC(C)(C)n1nnnc1C(c1ccc(Cl)cc1)N(Cc1cccnc1)Cc1ccco1 (configuration not stated),–,inactive: -25.5%
CCCCC(=O)Nc1cccc(NC(=O)c2cccnc2Cl)c1,–,inactive: -13.9%

Compound,Potency,"activity change, negative = growth inhibition"
COc1ccccc1-c1cc(C(=O)N/N=C/c2cccs2)c2ccccc2n1,"inconclusive: 2.06 µM [inhibitor, partial curve, poor fit]",–
CC(C)OCCCNC(=O)Cn1ccc2cc(S(=O)(=O)N3CCCCC3)ccc21,"inconclusive: 29.1 µM [inhibitor, partial curve]",–
Cc1c(C(=O)Nc2ccc(Br)cc2F)oc2ccc(S(=O)(=O)N3CCC4(CC3)OCCO4)cc12,"inconclusive: 9.2 µM [inhibitor, partial curve]",–
CCOc1ccc2nc(NS(=O)(=O)Cc3ccccc3)sc2c1,active: 4.61 µM,–
CCc1ccc(-c2cc(C)no2)cc1S(=O)(=O)N1CCN(c2cccc(Cl)c2)CC1,active: 0.651 µM,–
CCOC(=O)c1cnn(-c2ccccc2)c1-c1ccncc1,–,inactive: -21.5%
Cc1noc(COc2ccccc2OCC(O)CNC(C)(C)C)n1 (configuration not stated),–,inactive: -16.8%
COc1ccc(NC(=O)c2oc3ccc(S(=O)(=O)N(C)C4CCCCC4)cc3c2C)cc1Cl,active: 5.8 µM,–
O=C(NS(=O)(=O)c1ccc2c(c1)OCCO2)c1ccccc1,–,inactive: -18.8%
O=[N+]([O-])c1nn(-c2ccc3c(c2)OCCO3)n(O)c1=NC1CCCCC1,"inconclusive: 20.6 µM [inhibitor, single point]",–
CCCCN1CCCC1C(=O)Nc1c(C)cc(C)cc1C (configuration not stated),"inconclusive: 18.8 µM [inhibitor, single point]",–
CCC1CCc2sc(C(=O)NNC(=O)c3ccncc3)cc2C1 (configuration not stated),–,inactive: -21.3%
CCCOC(=O)C(C)n1nnc2sc(-c3ccccc3)cc2c1=O (configuration not stated),"inconclusive: 14.6 µM [inhibitor, partial curve, poor fit]",–
Cc1ccn2c(Nc3ccc4c(c3)OCO4)c(-c3ccc(O)cc3)nc2c1,"inconclusive: 29.1 µM [inhibitor, single point] and inconclusive: 13 µM [inhibitor, partial curve]",–
N#C/C(=C\c1ccc(-c2ccc(C(=O)O)cc2)o1)C(=O)NCC1CCCO1 (configuration not stated),–,inactive: -26.8%
CCCn1c(N2CCN(CC(=O)c3c(C)n(C)c4ccc(OC)cc34)CC2)nc2c1c(=O)[nH]c(=O)n2C,active: 20.6 µM,–
Cc1ccc(S(=O)(=O)NC(C)(C)CSc2ccccn2)cc1,"inconclusive: 29.1 µM [inhibitor, partial curve]",–
COc1cccc(C(=O)Nc2sc3c(c2C#N)CCN(C(C)=O)C3)c1,active: 1.46 µM,–
COc1ccccc1-c1ccc(C(=O)N2CCC(N3CCc4ccccc4C3)CC2)c(N(C)CC2COCCO2)n1 (configuration not stated),–,inactive: -4.79%
Cc1cc(C)cc(Nc2ncc3c(n2)CC(c2ccco2)CC3=O)c1 (configuration not stated),"inconclusive: 23.1 µM [inhibitor, single point]",–
CN(C(=O)c1ccccc1)c1nccnc1C#N,–,inactive: -11.8%
CCOC(=O)[C@]12CCC=C1N(Cc1ccc(Cl)cc1Cl)C(=O)[C@H](CC(=O)NCCC(C)C)C2,active: 20.6 µM,–
COc1cccc(CNS(=O)(=O)c2cc(Br)cc3c2N(C(C)=O)C(C)C3)c1 (configuration not stated),"inactive and inconclusive: 16.4 µM [inhibitor, single point]",–
O=C(c1cc(-c2cccc(Cl)c2)on1)N1CCOCC1,–,inactive: -6.15%
